# Results taken from paper PMC5836133.
# This is one part of the list. At the low end of the ranking, values are background and their order means little.
# Test system: T1, GST-NbGlk1(82-244)
# T1 sequence: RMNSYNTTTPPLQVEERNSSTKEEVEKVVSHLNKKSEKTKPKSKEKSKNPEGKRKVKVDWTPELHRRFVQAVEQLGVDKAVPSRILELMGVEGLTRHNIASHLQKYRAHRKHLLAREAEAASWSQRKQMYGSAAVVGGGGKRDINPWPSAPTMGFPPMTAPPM
# Experiment: protein-binding microarray;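 note: rank-based score ranging −0.5 to +0.5 with E above 0.45 taken as significant binding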
# Conditions: NbGlk1 is a Golden2-like transcription factor of Nicotiana benthamiana; high values mean tight binding; most listed sequences are background and not binding sites; double strand, one strand shown
row,Sequence,binding signal [E-score]
1,ATATCCCA,0.371
2,AACGAGTG,-0.0124
3,AGCCGGAA,-0.138
4,AACATTCT,0.0693
5,ACCTAGGT,-0.0754
6,ATTCGTAA,0.208
7,ACGAGCAG,-0.0897
8,AGGTTCCA,-0.159
9,ATGTGCAG,-0.0877
10,ACTGTGCC,-0.163
11,ACGAGCGA,-0.0224
12,ATGCAAGC,-0.184
13,ATGACTCC,-0.135
14,ATCTTATC,0.288
15,ACAAAAAC,-0.00308
16,ACTGTGAT,0.208
17,ATCAGCAA,0.124
18,ACACATCT,-0.0197
19,AGACGCAT,-0.0907
20,AATAAGAC,-0.167
21,ATATCGTA,0.364
22,ACGATAGC,-0.128
23,ATGTGCGG,-0.0928
24,ACTGATCA,0.0257

row,Sequence,binding signal [E-score]
1,AATACGAC,0.031
2,AACGCCGT,-0.196
3,AGAATGAG,-0.0766
4,ACAGTGTG,-0.179
5,ACACATAA,0.0601
6,AAACTTTC,-0.0209
7,CACCCGAA,-0.139
8,AATCGAGG,0.197
9,AAGTTTCT,-0.148
10,CACAAGCG,0.0164
11,AGCCGTGA,-0.0714
12,AGTTCGTC,-0.0902
13,AAAATTAA,0.184
14,AAACTGAT,0.152
15,AGGCCACC,-0.194
16,ACACTTGA,0.00963
17,ACAAGTAT,0.103
18,CAATATCG,0.306
19,ACCACCCG,-0.169
20,AGGACTAG,-0.111
21,AACTCAAC,0.0205
22,ACGTACGA,-0.0205
23,AGAGTCCG,-0.292
24,AAGATACC,0.228

row,Sequence,binding signal [E-score]
1,AACCGATA,0.16
2,AGCTGGTG,-0.198
3,AGCTTAGG,-0.169
4,ACTTAAAG,-0.05
5,AGCCGCCC,-0.309
6,AGGCTAGG,-0.252
7,ATCCGCGC,0.215
8,AAACAACG,-0.0293
9,ATGTAAGA,0.0949
10,AATCTATA,0.402
11,ACGTAATA,0.285
12,ATGACTGA,-0.135
13,ACTGAGAC,-0.074
14,ACTAGAAA,0.12
15,AGAGACGG,-0.364
16,AAAGAACA,0.00397
17,AGCCACAA,-0.111
18,AGAAACTC,-0.169
19,ATATATGG,0.224
20,ATAGTGCC,-0.0275
21,AGATAGTA,0.177
22,AAATAGGC,-0.0451
23,AGGCAGAT,0.213
24,CACAGCCC,-0.319

row,Sequence,binding signal [E-score]
1,CAATTAAA,0.00938
2,ATTTTAAA,0.244
3,AAGCTTAC,-0.148
4,AAGGGACG,-0.23
5,AGCGGTTG,-0.21
6,AATGTTAG,0.0233
7,AAATAAGA,0.162
8,ATTGCCTC,0.168
9,ATCCTGGA,0.296
10,AGCCGGCA,-0.213
11,ATCACTTA,0.174
12,AACACGAT,0.237
13,ACGAGCGC,-0.11
14,CAGAGCGA,-0.0365
15,AATGTTCG,-0.144
16,ACTCCTAA,-0.114
17,ACGCACTC,-0.177
18,ACGAGGTC,-0.186
19,AAGGCCCC,-0.423
20,CACAAAAG,-0.0721
21,ATAGACTC,-0.164
22,ACCGAGAT,0.274
